# From paper PMC3983036
# Amino acid sequences for entries named in this document (tags omitted).
# UniProt Q9VUV9: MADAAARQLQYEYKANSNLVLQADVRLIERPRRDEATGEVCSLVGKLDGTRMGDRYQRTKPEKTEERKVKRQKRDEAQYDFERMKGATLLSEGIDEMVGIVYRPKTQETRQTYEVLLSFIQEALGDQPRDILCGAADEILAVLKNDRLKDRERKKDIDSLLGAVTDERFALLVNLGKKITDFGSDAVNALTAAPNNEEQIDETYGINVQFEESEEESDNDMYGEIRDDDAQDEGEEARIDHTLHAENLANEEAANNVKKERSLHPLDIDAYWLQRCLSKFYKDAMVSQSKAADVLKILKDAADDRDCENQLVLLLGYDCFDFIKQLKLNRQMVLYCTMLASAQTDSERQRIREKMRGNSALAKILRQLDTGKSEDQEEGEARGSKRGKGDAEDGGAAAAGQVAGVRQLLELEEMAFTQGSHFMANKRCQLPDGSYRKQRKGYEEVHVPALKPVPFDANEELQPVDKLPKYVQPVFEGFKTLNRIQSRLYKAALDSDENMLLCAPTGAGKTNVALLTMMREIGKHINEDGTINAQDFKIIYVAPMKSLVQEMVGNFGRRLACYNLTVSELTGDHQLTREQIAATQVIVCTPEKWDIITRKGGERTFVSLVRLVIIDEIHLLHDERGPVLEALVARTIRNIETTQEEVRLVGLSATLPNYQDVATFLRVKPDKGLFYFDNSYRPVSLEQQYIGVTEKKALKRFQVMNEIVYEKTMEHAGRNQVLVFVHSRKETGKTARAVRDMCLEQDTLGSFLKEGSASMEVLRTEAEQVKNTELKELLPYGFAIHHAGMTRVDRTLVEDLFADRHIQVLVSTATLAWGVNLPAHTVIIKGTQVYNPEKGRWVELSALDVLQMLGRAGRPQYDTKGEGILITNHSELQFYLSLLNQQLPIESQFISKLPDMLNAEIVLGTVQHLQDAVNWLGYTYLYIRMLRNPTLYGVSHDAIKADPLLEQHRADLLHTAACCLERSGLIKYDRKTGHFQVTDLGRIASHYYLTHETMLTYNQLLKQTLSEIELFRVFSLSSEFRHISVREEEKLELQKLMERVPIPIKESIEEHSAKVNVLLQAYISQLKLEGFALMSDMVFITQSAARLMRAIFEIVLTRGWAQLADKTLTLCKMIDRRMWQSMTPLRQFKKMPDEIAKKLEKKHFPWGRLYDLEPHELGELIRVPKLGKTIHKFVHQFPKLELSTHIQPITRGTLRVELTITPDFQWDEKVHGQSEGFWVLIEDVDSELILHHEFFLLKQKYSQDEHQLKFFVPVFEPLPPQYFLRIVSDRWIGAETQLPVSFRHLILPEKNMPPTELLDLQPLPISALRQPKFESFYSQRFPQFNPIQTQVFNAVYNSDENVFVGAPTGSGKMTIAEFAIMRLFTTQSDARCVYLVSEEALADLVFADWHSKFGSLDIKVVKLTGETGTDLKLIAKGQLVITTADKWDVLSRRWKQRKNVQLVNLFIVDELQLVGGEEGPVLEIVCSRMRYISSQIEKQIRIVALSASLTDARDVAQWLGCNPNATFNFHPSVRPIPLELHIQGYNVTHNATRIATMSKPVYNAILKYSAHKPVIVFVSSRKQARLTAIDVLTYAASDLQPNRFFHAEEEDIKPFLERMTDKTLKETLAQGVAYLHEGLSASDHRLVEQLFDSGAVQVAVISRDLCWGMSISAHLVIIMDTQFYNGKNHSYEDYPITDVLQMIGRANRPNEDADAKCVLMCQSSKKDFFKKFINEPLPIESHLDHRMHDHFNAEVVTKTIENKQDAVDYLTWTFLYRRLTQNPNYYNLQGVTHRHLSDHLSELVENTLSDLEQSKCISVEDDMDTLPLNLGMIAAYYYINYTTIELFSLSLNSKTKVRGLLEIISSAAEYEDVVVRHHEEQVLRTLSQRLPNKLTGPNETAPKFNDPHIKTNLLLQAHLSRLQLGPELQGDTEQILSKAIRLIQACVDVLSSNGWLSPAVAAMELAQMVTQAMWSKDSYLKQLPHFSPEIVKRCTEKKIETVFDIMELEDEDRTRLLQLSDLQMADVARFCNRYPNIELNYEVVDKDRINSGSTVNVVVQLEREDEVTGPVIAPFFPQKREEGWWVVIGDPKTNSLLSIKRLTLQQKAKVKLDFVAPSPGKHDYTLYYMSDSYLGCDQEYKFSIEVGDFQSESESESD
# Positions count from the first letter of the chain named. Names and notes keep the numbering of the source. Results are given in words; binding and its absence hold for the method and conditions named. In cells and extracts the contact can be indirect. Some entries that bind do so weakly or less than the wild type. For part of these data: Sequences can lack the tags named with a protein.
# B1: Ecd^l(3)23 mutant protein (truncated Ecd), epitope-tagged (domain or fragment, UniProt Q9W032 1-650)
# chain: MSKIPGSNLEFVREEDFVEYYIFPKIPDNVQDEGALRKLMLQIRNEISAIVREKSLERSYLWHKDEFQLQVRLGGAEERLLNEETNPEEEAELGDLPPHFHGVTHYGDNISDEWFVVYLLTEITRARGDCIARVSDSDGEFLLIEAADALPDWASPETCEQRVYLVGGHLQLLQNSAASSQDKPLTMAMAVQRIRMNPTLYRCSQEIQSCIDARLKEYQIAQPHFSIHRQVLELPHSAAQLLKQKPRLLSSAVRAFCERDSLDIKALRTMRYFPPEATRVRTNVRFTRCLYAMLSHQQYLPEKRLGWHLTDPVSEPERYKEQLLGLKLASGLEILATQAKRVEGQQLEDLPAWRSYLRSLLSKGYFRDNIEGSAEYQELLNKAKVYFRGNQERFRTASRAGAEILDLLLHPAEAASEELRDEENNLQPSDSDEWLNISAEDLDSMLQDRYGPKKLYKPNGQMNAEEFTKQLAEFLDRQSNYEGIEHRGLEEPELDSDDDEPPPQANGSTGLTAKVKKNPSMRKACQRNSVIQPEEPDSTHVRNFLDFVIPEDNWDSTSEMSDYADEDDMESNLNALSGGGSVFPLDRQIQSYMEQMDRELAQTSVGKSFHGKKKTAPQADEDDFDDIEDFEPININVNTLRNMMDSYQSQ
# B2: Ecd, epitope-tagged (co-immunoprecipitation of Figure 1C) (protein, UniProt Q9W032 1-684)
# chain: MSKIPGSNLEFVREEDFVEYYIFPKIPDNVQDEGALRKLMLQIRNEISAIVREKSLERSYLWHKDEFQLQVRLGGAEERLLNEETNPEEEAELGDLPPHFHGVTHYGDNISDEWFVVYLLTEITRARGDCIARVSDSDGEFLLIEAADALPDWASPETCEQRVYLVGGHLQLLQNSAASSQDKPLTMAMAVQRIRMNPTLYRCSQEIQSCIDARLKEYQIAQPHFSIHRQVLELPHSAAQLLKQKPRLLSSAVRAFCERDSLDIKALRTMRYFPPEATRVRTNVRFTRCLYAMLSHQQYLPEKRLGWHLTDPVSEPERYKEQLLGLKLASGLEILATQAKRVEGQQLEDLPAWRSYLRSLLSKGYFRDNIEGSAEYQELLNKAKVYFRGNQERFRTASRAGAEILDLLLHPAEAASEELRDEENNLQPSDSDEWLNISAEDLDSMLQDRYGPKKLYKPNGQMNAEEFTKQLAEFLDRQSNYEGIEHRGLEEPELDSDDDEPPPQANGSTGLTAKVKKNPSMRKACQRNSVIQPEEPDSTHVRNFLDFVIPEDNWDSTSEMSDYADEDDMESNLNALSGGGSVFPLDRQIQSYMEQMDRELAQTSVGKSFHGKKKTAPQADEDDFDDIEDFEPININVNTLRNMMDSYQSQVGGAGPVSNLFSAMGVGMSAVEDKEQKDISESAV
# B3: Ecd^1 mutant protein (P656S), epitope-tagged (protein, UniProt Q9W032 1-684)
# chain: B2 chain with P656S
# Experiments:
# Assay in all cases: co-IP; pairs of epitope-tagged proteins expressed in S2 cells; lysis in 50 mM Tris-HCl pH 7.8, 150 mM NaCl, 1 mM EDTA, 1% Triton X-100, 0.01% Igepal; anti-Flag magnetic beads overnight at 4°C, five washes, immunoblot by the tags; cells with Ecd^1 upshifted to 30°C for 45 min before lysis; control: empty pTFW vector
# [1] = target: Prp8, epitope-tagged (co-immunoprecipitation of Figure 1B) (Drosophila melanogaster) (UniProt A1Z8U0)
# [2] = target: Flag-tagged Prp8 (Drosophila) (Drosophila melanogaster) (UniProt A1Z8U0)
# [3] = target: Flag-tagged Brr2 (Drosophila) (Drosophila melanogaster) (UniProt Q9VUV9)
Molecule,binding [1],binding [2],binding [3]
"Brr2, epitope-tagged (co-immunoprecipitation of Figure 1B) (from UniProt Q9VUV9 1-2142)",binds,,
B1,,binds,no binding
B2,,binds,
B3,,binds,no binding
